Assay results from the supplement of paper PMC9174493.
Some of the results follow. Single values of this set are uncertain. Values with irradiation are relative to irradiated vehicle.

Columns and labels:
A549-Dual [1] = assay: NF-kB reporter (SEAP) activity, viability-corrected, relative to vehicle (fold change vs vehicle); higher = more activation of STING-IRF / NF-kB immune response reporter; conditions: 10 µM
A549-Dual [2] = assay: ISRE reporter (Lucia luciferase) activity, viability-corrected, relative to vehicle (fold change vs vehicle); higher = more activation of STING-IRF / NF-kB immune response reporter; conditions: 10 µM
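For NF-kB reporter (SEAP) activity, viability-corrected, relative to vehicle in this document: viability correction based on the alamar blue assay, with concentrations leaving 10% survival or less dropped.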

Row | SMILES | NF-kB reporter (A549-Dual [1]; irradiation: 8 Gy/4 fr) | NF-kB reporter (A549-Dual [1]; irradiation: none) | ISRE reporter (A549-Dual [2]; irradiation: 8 Gy/4 fr) | ISRE reporter (A549-Dual [2]; irradiation: none)
1 | CCC1(c2cccc(O)c2)CCCCN(C)C1.Cl (configuration not stated) [Meptazinol HCl] | 0.842 | 0.928 | 0.995 | 0.961
2 | NCC1(CC(=O)O)CCCCC1 [Gabapentin] | 0.696 | 1.85 | 0.554 | 0.885
3 | CN(C)NC(=O)CCC(=O)O [Daminozide] | 1.31 | 0.9 | 1.15 | 0.635
4 | Cc1ccc2c(c1)C13CCCCC1C(C2)N(C)CC3.O=P(O)(O)O (configuration not stated) [Dimemorfan phosphate] | 0.86 | 0.593 | 0.915 | 0.655
5 | Cl.NC1CC1c1ccccc1 (configuration not stated) [Tranylcypromine (2-PCPA) HCl] | 0.871 | 1.22 | 0.698 | 0.687
6 | O=C/C=C/c1ccccc1 [Cinnamaldehyde] | 1.31 | 1.82 | 0.0991 | 0.327
7 | CN1C(=O)COc2c(C(=O)NC3CN4CCC3CC4)cc(Cl)cc21.Cl (configuration not stated) [Azasetron HCl] | 0.607 | 0.615 | 0.682 | 0.766
8 | O=C1C=C2C=CC3CC2(O1)C1CCCCN31 (configuration not stated) [Securinine] | 1.04 | 1.25 | 0.595 | 0.684
9 | Br.COc1ccc2c(c1)C13CCCCC1C(C2)N(C)CC3.O (configuration not stated) [Dextromethorphan hydrobromide hydrate] | 0.743 | 1.14 | 0.763 | 0.663
10 | CC1/C=C/C=C/CC/C=C/C=C/C=C/C=C/C(OC2OC(C)C(O)C(N)C2O)CC2OC(O)(CC(O)C(O)CCC(O)CC(O)CC(O)CC(=O)OC(C)C(C)C1O)CC(O)C2C(=O)O (configuration not stated) [Nystatin (Fungicidin)] | 0.562 | 0.867 | 0.505 | 0.594
11 | COc1cc(C2c3cc4c(cc3C(O)C3COC(=O)C23)OCO4)cc(OC)c1OC (configuration not stated) [Picropodophyllin (PPP)] | 0.911 | 1.86 | 0.0828 | 0.459
12 | COc1ccc(CN2CCNCC2)c(OC)c1OC.Cl.Cl [Trimetazidine dihydrochloride] | 0.767 | 1.18 | 0.681 | 0.699
13 | CN1C(=O)CCS(=O)(=O)C1c1ccc(Cl)cc1 (configuration not stated) [Chlormezanone] | 0.614 | 1.08 | 0.822 | 0.954
14 | C=CC(=C)C [Isoprene] | 0.902 | 0.9 | 0.989 | 0.709
15 | CN1C2CCC1CC(OC(=O)C(CO)c1ccccc1)C2.CN1C2CCC1CC(OC(=O)C(CO)c1ccccc1)C2.O=S(=O)(O)O (configuration not stated) [Atropine sulfate] | 0.79 | 0.833 | 0.759 | 0.588
16 | CC12CCC(O)CC1CCC1C2CC(O)C2(C)C(C3=CC(=O)OC3)CCC12O (configuration not stated) [Digoxigenin] | 3.23 | 4.11 | 0.064 | 0.158
17 | CCC(COC(=O)c1cc(OC)c(OC)c(OC)c1)(c1ccccc1)N(C)C.O=C(O)/C=C\C(=O)O (configuration not stated) [Trimebutine maleate] | 0.646 | 0.546 | 0.683 | 0.434
18 | CC12CCC3C(CCC4CC(O)CCC43C)C1CCC2=O (configuration not stated) [Androsterone] | 1.02 | 0.916 | 1.08 | 0.631
19 | CCC1(c2c[nH]cn2)Cc2ccccc2C1.Cl [Atipamezole hydrochloride] | 1.16 | 1.76 | 0.695 | 0.819
20 | CC12C=CC(=O)C=C1CCC1C2CCC2(C)C(O)CCC12 (configuration not stated) [Boldenone] | 0.877 | 0.836 | 0.904 | 0.654
21 | COc1cc2c(cc1OC)C1CC(=O)C(CC(C)C)CN1CC2 (configuration not stated) [Tetrabenazine (Xenazine)] | 0.889 | 0.966 | 0.993 | 0.9
22 | Br.COC(=O)C1=CCCN(C)C1 [Arecoline HBr] | 0.768 | 1.12 | 0.64 | 0.96
23 | CC(C)C(Br)C(=O)NC(N)=O (configuration not stated) [Bromisoval] | 0.922 | 1.35 | 0.83 | 0.808
24 | CCN(C)C(=O)Oc1cccc(C(C)N(C)C)c1.O=C(O)C(O)C(O)C(=O)O (configuration not stated) [Rivastigmine Tartrate] | 0.559 | 0.553 | 0.624 | 0.641
25 | Nc1nc(N)nc(N)n1 [Melamine] | 0.826 | 0.559 | 0.813 | 0.53
26 | O=C(OC1CC2CCC(C1)[N+]21CCCC1)C(O)(c1ccccc1)c1ccccc1.[Cl-] (configuration not stated) [Trospium chloride] | 0.794 | 1.2 | 0.783 | 0.71
27 | Cl.O=C1CCC2(O)C3Cc4ccc(O)c5c4C2(CCN3CC2CC2)C1O5 (configuration not stated) [Naltrexone HCl] | 0.639 | 0.846 | 0.749 | 0.796

Row | SMILES | NF-kB reporter (A549-Dual [1]; irradiation: 8 Gy/4 fr) | NF-kB reporter (A549-Dual [1]; irradiation: none) | ISRE reporter (A549-Dual [2]; irradiation: 8 Gy/4 fr) | ISRE reporter (A549-Dual [2]; irradiation: none)
28 | Cc1cccc(C)c1NC(=O)CN1CCCC1=O [Nefiracetam] | 0.697 | 0.724 | 0.763 | 0.663
29 | Cl.Clc1ccc(C(OCCN2CCCCC2)c2ccccc2)cc1 (configuration not stated) [Cloperastine hydrochloride] | 0.743 | 1.33 | 0.595 | 0.877
30 | COC12CC(COC(=O)c3cncc(Br)c3)CN(C)C1Cc1cn(C)c3cccc2c13 (configuration not stated) [Nicergoline] | 1.08 | 0.611 | 0.87 | 0.647
31 | CC(C)NCC(O)c1ccccc1Cl.Cl (configuration not stated) [Clorprenaline HCl] | 0.86 | 0.979 | 0.86 | 0.751
32 | CC(NC(C)(C)C)C(=O)c1cccc(Cl)c1.Cl (configuration not stated) [Amfebutamone (Bupropion) HCl] | 0.979 | 0.9 | 0.99 | 0.632
33 | CCC(CO)NC(=O)C1C=C2c3cccc4c3c(cn4C)CC2N(C)C1.O=C(O)/C=C\C(=O)O (configuration not stated) [Methysergide Maleate] | 0.783 | 0.775 | 0.794 | 0.577
34 | NCCCNCCSP(=O)(O)O.O.O.O [Amifostine] | 0.959 | 0.912 | 0.839 | 0.842
35 | CC(C)=CCOc1c2occc2cc2ccc(=O)oc12 [Imperatorin] | 0.916 | 1.12 | 0.369 | 0.379
36 | O=c1ccc2ccc3occc3c2o1 [Isopsoralen] | 0.642 | 0.631 | 0.583 | 0.64
37 | COc1ccc(C(CN(C)C)C2(O)CCCCC2)cc1 (configuration not stated) [Venlafaxine] | 0.806 | 1.33 | 0.736 | 0.664
38 | CN1CC(C(=O)NC2(C)OC3(O)C4CCCN4C(=O)C(Cc4ccccc4)N3C2=O)CC2c3cccc4[nH]cc(c34)CC21.CS(=O)(=O)O (configuration not stated) [Dihydroergotamine Mesylate] | 1.31 | 0.806 | 1.43 | 0.877
39 | COc1ccc(C(CN(C)C)C2(O)CCCCC2)cc1.Cl (configuration not stated) [Venlafaxine HCl] | 0.905 | 0.953 | 0.827 | 0.781
40 | CC(Cc1ccc(O)cc1)NCC(O)c1cc(O)cc(O)c1 (configuration not stated) [Fenoterol] | 0.9 | 1.06 | 0.827 | 0.787
41 | C=CCC1(O)CCC2C3CCC4=CC(=O)CCC4=C3C=CC21C (configuration not stated) [Altrenogest] | 0.531 | 0.993 | 0.28 | 0.485
42 | CCOC(=O)Nc1ccc(NCc2ccc(F)cc2)cc1N [Retigabine] | 0.452 | 0.951 | 0.459 | 0.617
43 | Oc1ccc(Cl)cc1Cc1cc(Cl)ccc1O [Dichlorophene] | 0.289 | 0.364 | 0.144 | 0.269
44 | CC1(C)C(C=C(Cl)Cl)C1C(=O)OCc1cccc(Oc2ccccc2)c1 (configuration not stated) [Permethrin] | 0.764 | 0.844 | 0.698 | 0.728
45 | Cc1cccc(Cc2c[nH]cn2)c1C.Cl [Detomidine HCl] | 0.676 | 1.05 | 0.671 | 0.771
46 | CC1C(=O)OC2C(O)C34C5OC(=O)C3(OC3OC(=O)C(O)C34C(C(C)(C)C)C5O)C12O (configuration not stated) [Ginkgolide C] | 1.49 | 0.882 | 1.11 | 0.668
47 | CCC(=O)OC1CCC2C3CCC4CC(=O)C(C)CC4(C)C3CCC12C (configuration not stated) [Drostanolone Propionate] | 0.864 | 0.627 | 0.625 | 0.42
48 | CC(C)N(CCNC(=O)CN1CCCC1=O)C(C)C [Pramiracetam] | 1.12 | 2.04 | 1.04 | 1.62
49 | CCNCC.O=C(O)Cc1ccccc1Nc1c(Cl)cccc1Cl [Diclofenac Diethylamine] | 0.401 | 0.652 | 0.45 | 0.749
50 | O=C(CS(=O)C(c1ccccc1)c1ccccc1)NO (configuration not stated) [Adrafinil] | 0.674 | 1.27 | 0.649 | 0.647
51 | NCCc1ccc(O)cc1 [Tyramine] | 0.461 | 0.713 | 0.545 | 0.808
52 | CNC1C(O)C(OC2C(N)CC(N)C(OC3OC(C(C)O)C(O)C(O)C3N)C2O)OCC1(C)O.O=S(=O)(O)O.O=S(=O)(O)O (configuration not stated) [Geneticin (G418 Sulfate)] | 0.747 | 0.838 | 0.722 | 1.04
53 | CC1(C)SC2C(N)C(=O)N2C1C(=O)O (configuration not stated) [6-Aminopenicillanic acid] | 0.956 | 0.807 | 0.978 | 0.764
